± gives the uncertainty stated by the source. The full ranking holds about 9,900 compounds; the median of “viability index relative to DMSO control” is about 1, and the lowest 2% start at about 0.85. Some of the results follow.
What follows are molecules tested on Plasmodium falciparum NF54 stage V gametocytes (assay: viability index relative to DMSO control (fraction); higher = less gametocyte killing). Conditions: 2.5 µM, library set: Broad Institute DOS, incubation time: 72 h.
Experimental: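 Broad DOS informer set and blood-stage-active DOS compounds screened in duplicate at 2.5 µM against P. falciparum NF54 stage V gametocytes with the serum-free one-step SaLSSA (1536-well): 72 h at 37 °C under low oxygen, then saponin lysis and MitoTracker Red CMXRos staining, with high-content imaging. Viability index = viable-object count divided by the plate mean of DMSO wells (0 = killed, about 1 = inactive).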

**Q.** Which viability index does the source give for `CN1C(=O)c2cc(NC(=O)c3cnccn3)ccc2OC[C@H]2O[C@H](CC(=O)NCC3CCCCC3)CC[C@H]21` here?
**A.** 1.1 ± 0.064

**Q.** For `O=C(NC1CCCCC1)N1CC2(C1)[C@@H](c1ccccc1)[C@@H](CO)N2CC1CCCC1`, which viability index is on record?
**A.** 0.987 ± 0.041

**Q.** How did the viability index turn out when `CN(C)CC(=O)N1[C@H](CO)[C@@H](c2ccccc2)C12CN(CCC(F)(F)F)C2` was run?
**A.** 1.05 ± 0.058

**Q.** For `O=C(C[C@@H]1CC[C@@H]2NC[C@H](O)COC[C@H]2O1)NCCc1ccncc1`, which viability index is on record?
**A.** 0.976 ± 0.038

**Q.** How did the viability index turn out when `C/C=C/c1ccc([C@H]2[C@H]3CN(CCC(F)(F)F)CCCCN3[C@H]2CO)cc1` was run?
**A.** 1.041 ± 0.0046

**Q.** `COc1cccc(NC(=O)C[C@@H]2CC[C@H]3[C@@H](COc4ccc(NC(=O)C5CC5)cc4C(=O)N3C)O2)c1` was tested. Which viability index did it give?
**A.** 1.09 ± 0.035

**Q.** Which viability index does the source give for `CO[C@@H](CN(C)CC1CCOCC1)[C@H](C)CN(C(=O)Nc1ccc(F)cc1)[C@@H](C)CO` here?
**A.** 0.988 ± 0.043

**Q.** With `O=C(c1ccncc1)N1C[C@@H]2[C@H](c3ccccc31)[C@@H](CO)N2Cc1ccccc1F` as the molecule, how does the viability index read?
**A.** 1.08 ± 0.043

**Q.** For `O=C(C[C@H]1CC[C@H]2[C@@H](COC[C@H](O)CN2C(=O)c2ccncc2)O1)Nc1ccc(-c2ccccc2)cc1`, which viability index is on record?
**A.** 1.1 ± 0.041

**Q.** `CNC[C@@H]1Oc2ncc(-c3cncnc3)cc2C(=O)N([C@H](C)CO)C[C@@H]1C` was tested. Which viability index did it give?
**A.** 0.952 ± 0.034

**Q.** `CN(C)c1ccc2c(c1)[C@@H]1C[C@@H](CC(=O)N3CCOCC3)O[C@@H](CO)[C@@H]1O2` was tested. Which viability index did it give?
**A.** 1.08 ± 0.054

**Q.** For `Cc1ccc(S(=O)(=O)N(C)C[C@H]2OCCCC[C@H](C)Oc3ccc(NC(=O)c4ccncc4)cc3C(=O)N([C@H](C)CO)C[C@H]2C)cc1`, which viability index is on record?
**A.** 1.03 ± 0.022

**Q.** `CO[C@H]1CN(C)C(=O)c2ccc(NC(=O)Nc3c(C)noc3C)cc2OC[C@@H](C)N(CCC(F)(F)F)C[C@@H]1C` was tested. Which viability index did it give?
**A.** 0.963 ± 0.045

**Q.** With `CNC[C@H]1OCc2cn(nn2)CCCC(=O)N([C@@H](C)CO)C[C@H]1C` as the molecule, how does the viability index read?
**A.** 0.985 ± 0.051

**Q.** `N#C[C@@H]1[C@H](c2ccccc2C2=CCCCC2)[C@H](CO)N1C(=O)c1ccccn1` was tested. Which viability index did it give?
**A.** 0.958 ± 0.064

**Q.** Which viability index does the source give for `CCS(=O)(=O)N1C[C@@]2(C1)CN([C@H](CO)c1[nH]c3cc(OC)ccc3c21)C(=O)Nc1c(C)noc1C` here?
**A.** 0.971 ± 0.15

**Q.** `CCN(C[C@@H]1[C@H](c2ccccc2)[C@@H](CO)N1C(=O)COC)S(C)(=O)=O` was tested. Which viability index did it give?
**A.** 0.995 ± 0.045

**Q.** Which viability index does the source give for `O=S(=O)(c1ccccc1)N1[C@H](CO)[C@H]2c3ccccc3NC[C@H]21` here?
**A.** 1.05 ± 0.018

**Q.** With `C[C@@H]1CCCCO[C@@H](CN(C)C(=O)Nc2ccc3c(c2)OCO3)[C@@H](C)CN([C@H](C)CO)C(=O)c2cc(NS(=O)(=O)c3ccc(F)cc3)ccc2O1` as the molecule, how does the viability index read?
**A.** 1.13 ± 0.1

**Q.** How did the viability index turn out when `Cc1ccccc1-c1ccc([C@@H]2[C@@H](CO)N3C(=O)CN(S(C)(=O)=O)C[C@@H]23)cc1` was run?
**A.** 1.05 ± 0.11

**Q.** How did the viability index turn out when `COC(=O)C[C@H]1C[C@H]2c3cc(NC(=O)C4CCOCC4)ccc3O[C@H]2[C@@H](CO)O1` was run?
**A.** 0.956 ± 0.029

**Q.** How did the viability index turn out when `CCNC(=O)C[C@@H]1CC[C@H]2[C@@H](COC[C@H](O)CN2C(=O)c2ccccn2)O1` was run?
**A.** 1.14 ± 0.062

**Q.** For `CCCC#Cc1ccc([C@H]2[C@H]3CN(S(=O)(=O)c4ccccc4C)CC(=O)N3[C@H]2CO)cc1`, which viability index is on record?
**A.** 1.07 ± 0.05

**Q.** `COc1cccc(S(=O)(=O)Nc2ccc3c(c2)C(=O)N(C)[C@H]2CC[C@@H](CC(=O)NCC4CCCCC4)O[C@@H]2CO3)c1` was tested. Which viability index did it give?
**A.** 0.958 ± 0.0087

**Q.** How did the viability index turn out when `CN1c2ccc(Br)cc2[C@@H]2[C@@H](CCN2C(=O)C2CCC2)[C@H]1CO` was run?
**A.** 1.04 ± 0.015

**Q.** For `C[C@@H]1CN([C@H](C)CO)C(=O)c2cccc(NC(=O)Nc3ccc(F)cc3)c2O[C@@H]1CN(C)S(=O)(=O)c1ccc(Cl)cc1`, which viability index is on record?
**A.** 0.855 ± 0.061

**Q.** Which viability index does the source give for `O=C(C[C@H]1CC[C@@H]2NC[C@@H](O)COC[C@H]2O1)N1CCc2ccccc2C1` here?
**A.** 1.02 ± 0.043

**Q.** How did the viability index turn out when `Cc1ccc(S(=O)(=O)NCC[C@@H]2CC[C@H](NC(=O)c3cccnc3)[C@@H](CO)O2)cc1` was run?
**A.** 1.14 ± 0.069

**Q.** With `CO[C@H]1CN(C)C(=O)c2cc(NS(=O)(=O)c3cn(C)cn3)ccc2OC[C@@H](C)NC[C@H]1C` as the molecule, how does the viability index read?
**A.** 1 ± 0.012

**Q.** Which viability index does the source give for `C[C@H](CO)N1C[C@H](C)[C@H](CN(C)Cc2ccc(Oc3ccccc3)cc2)Oc2c(NS(=O)(=O)c3cn(C)cn3)cccc2C1=O` here?
**A.** 0.958 ± 0.045

**Q.** How did the viability index turn out when `C[C@H](CO)N1C[C@H](C)[C@@H](CN(C)C(=O)CCC(F)(F)F)OCc2ccccc2-c2ccccc2C1=O` was run?
**A.** 0.955 ± 0.031

**Q.** With `CCC(=O)N1CC(=O)N2[C@H](C1)[C@@H](c1ccc(-c3ccc(C#N)cc3)cc1)[C@@H]2CO` as the molecule, how does the viability index read?
**A.** 1.05 ± 0.13

**Q.** For `OC[C@@H]1[C@H](c2ccc(-c3cccnc3)cc2)[C@H]2CN(Cc3ccccn3)CCCCN12`, which viability index is on record?
**A.** 0.979 ± 0.024

**Q.** Which viability index does the source give for `C[C@H]1CN([C@@H](C)CO)C(=O)c2cccc(NC(=O)c3ccc(-c4nccs4)cc3)c2O[C@H]1CN(C)C(=O)Nc1ccc(C(F)(F)F)cc1` here?
**A.** 0.997 ± 0.16

**Q.** For `CCCNC(=O)c1cc2c(c(-c3cccc(-c4ccc(F)cc4)c3)n1)[C@@H](CCO)N([S@](=O)C(C)(C)C)C2`, which viability index is on record?
**A.** 1.061 ± 0.0038

**Q.** How did the viability index turn out when `C[C@@H]1CN([C@H](C)CO)C(=O)c2ccccc2-c2ccccc2CO[C@H]1CN(C)C(=O)c1cc(Cl)cc(Cl)c1` was run?
**A.** 1.03 ± 0.14

**Q.** `COc1ccc(S(=O)(=O)Nc2ccc3c(c2)[C@@H]2C[C@H](CC(=O)N(C)C)O[C@H](CO)[C@@H]2O3)cc1` was tested. Which viability index did it give?
**A.** 1.06 ± 0.11

**Q.** `CNC(=O)C[C@@H]1CC[C@@H]2[C@@H](COc3ccc(NC(=O)c4ccccc4F)cc3C(=O)N2C)O1` was tested. Which viability index did it give?
**A.** 1.13 ± 0.083

**Q.** With `O=C(C1CCCCC1)N1CC2(C1)[C@H](c1ccccc1)[C@@H](CO)N2C(=O)c1cccnc1` as the molecule, how does the viability index read?
**A.** 1.17 ± 0.041

**Q.** `CCc1cnc(N2[C@H](C#N)[C@H](c3ccc(-c4cccc(F)c4)cc3)[C@@H]2CO)s1` was tested. Which viability index did it give?
**A.** 1.07 ± 0.027

**Q.** For `CCS(=O)(=O)Nc1ccc2c(c1)C(=O)N(C)[C@@H]1CC[C@H](CC(=O)NCCCN3CCOCC3)O[C@@H]1CO2`, which viability index is on record?
**A.** 1.08 ± 0.18

**Q.** Which viability index does the source give for `O=C(c1ccc2c(c1)OCO2)N1C[C@@H]2[C@H](c3ccccc31)[C@H](CO)N2Cc1cccnc1` here?
**A.** 0.951 ± 0.031

**Q.** With `C[C@@H]1CN([C@@H](C)CO)C(=O)c2cc(NC(=O)Nc3cccc4ccccc34)ccc2O[C@@H](C)CCCCO[C@@H]1CN(C)Cc1ccc(C(F)(F)F)cc1` as the molecule, how does the viability index read?
**A.** 1.02 ± 0.03

**Q.** Which viability index does the source give for `OC[C@H]1[C@@H](c2ccc(C#CC3(O)CCCC3)cc2)[C@@H]2CN(Cc3cncnc3)CCCCN12` here?
**A.** 1.02 ± 0.099

**Q.** Which viability index does the source give for `C[C@H]1CN([C@@H](C)CO)C(=O)c2cc(NC(=O)Cn3cnnn3)ccc2O[C@H]1CN(C)Cc1ccc(C(=O)Nc2ccccc2N)cc1` here?
**A.** 1.05 ± 0.12
